These are yes or no findings as the source states them, for the method shown. Binding seen in cells or lysates may run through a third protein. Some binding calls cover weakened binding; strength is not graded here.

Protein sequences, listed by entry. Tags and fused reporters are not part of them. Lines headed by an entry give the natural chain unless they say otherwise; changes in a name come on top. Chains listed by the source or under a name are the forms on record and can include a tag or linker. Residues count along the entry.
UniProt P04198: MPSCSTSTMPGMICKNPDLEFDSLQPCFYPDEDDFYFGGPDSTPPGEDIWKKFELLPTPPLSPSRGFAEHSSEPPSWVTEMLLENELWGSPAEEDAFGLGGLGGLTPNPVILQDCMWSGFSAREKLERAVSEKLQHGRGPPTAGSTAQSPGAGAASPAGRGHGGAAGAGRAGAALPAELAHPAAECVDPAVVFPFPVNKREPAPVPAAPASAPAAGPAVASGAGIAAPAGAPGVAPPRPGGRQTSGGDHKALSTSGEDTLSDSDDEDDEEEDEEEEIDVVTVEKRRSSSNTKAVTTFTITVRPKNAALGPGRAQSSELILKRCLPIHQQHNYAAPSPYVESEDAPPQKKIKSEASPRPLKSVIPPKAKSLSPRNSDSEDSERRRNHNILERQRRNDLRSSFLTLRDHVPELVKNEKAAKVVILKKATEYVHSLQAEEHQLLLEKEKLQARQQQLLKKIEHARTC
Δ382–464 deletion mutant N-Myc with a 3xFLAG tag: residues 1-381 of P04198
Δ346–464 deletion mutant N-Myc with a 3xFLAG tag: residues 1-345 of P04198
Δ281–464 deletion mutant N-Myc with a 3xFLAG tag: residues 1-280 of P04198
Δ1–123 deletion mutant N-Myc with a 3xFLAG tag: residues 124-464 of P04198
UniProt Q09472: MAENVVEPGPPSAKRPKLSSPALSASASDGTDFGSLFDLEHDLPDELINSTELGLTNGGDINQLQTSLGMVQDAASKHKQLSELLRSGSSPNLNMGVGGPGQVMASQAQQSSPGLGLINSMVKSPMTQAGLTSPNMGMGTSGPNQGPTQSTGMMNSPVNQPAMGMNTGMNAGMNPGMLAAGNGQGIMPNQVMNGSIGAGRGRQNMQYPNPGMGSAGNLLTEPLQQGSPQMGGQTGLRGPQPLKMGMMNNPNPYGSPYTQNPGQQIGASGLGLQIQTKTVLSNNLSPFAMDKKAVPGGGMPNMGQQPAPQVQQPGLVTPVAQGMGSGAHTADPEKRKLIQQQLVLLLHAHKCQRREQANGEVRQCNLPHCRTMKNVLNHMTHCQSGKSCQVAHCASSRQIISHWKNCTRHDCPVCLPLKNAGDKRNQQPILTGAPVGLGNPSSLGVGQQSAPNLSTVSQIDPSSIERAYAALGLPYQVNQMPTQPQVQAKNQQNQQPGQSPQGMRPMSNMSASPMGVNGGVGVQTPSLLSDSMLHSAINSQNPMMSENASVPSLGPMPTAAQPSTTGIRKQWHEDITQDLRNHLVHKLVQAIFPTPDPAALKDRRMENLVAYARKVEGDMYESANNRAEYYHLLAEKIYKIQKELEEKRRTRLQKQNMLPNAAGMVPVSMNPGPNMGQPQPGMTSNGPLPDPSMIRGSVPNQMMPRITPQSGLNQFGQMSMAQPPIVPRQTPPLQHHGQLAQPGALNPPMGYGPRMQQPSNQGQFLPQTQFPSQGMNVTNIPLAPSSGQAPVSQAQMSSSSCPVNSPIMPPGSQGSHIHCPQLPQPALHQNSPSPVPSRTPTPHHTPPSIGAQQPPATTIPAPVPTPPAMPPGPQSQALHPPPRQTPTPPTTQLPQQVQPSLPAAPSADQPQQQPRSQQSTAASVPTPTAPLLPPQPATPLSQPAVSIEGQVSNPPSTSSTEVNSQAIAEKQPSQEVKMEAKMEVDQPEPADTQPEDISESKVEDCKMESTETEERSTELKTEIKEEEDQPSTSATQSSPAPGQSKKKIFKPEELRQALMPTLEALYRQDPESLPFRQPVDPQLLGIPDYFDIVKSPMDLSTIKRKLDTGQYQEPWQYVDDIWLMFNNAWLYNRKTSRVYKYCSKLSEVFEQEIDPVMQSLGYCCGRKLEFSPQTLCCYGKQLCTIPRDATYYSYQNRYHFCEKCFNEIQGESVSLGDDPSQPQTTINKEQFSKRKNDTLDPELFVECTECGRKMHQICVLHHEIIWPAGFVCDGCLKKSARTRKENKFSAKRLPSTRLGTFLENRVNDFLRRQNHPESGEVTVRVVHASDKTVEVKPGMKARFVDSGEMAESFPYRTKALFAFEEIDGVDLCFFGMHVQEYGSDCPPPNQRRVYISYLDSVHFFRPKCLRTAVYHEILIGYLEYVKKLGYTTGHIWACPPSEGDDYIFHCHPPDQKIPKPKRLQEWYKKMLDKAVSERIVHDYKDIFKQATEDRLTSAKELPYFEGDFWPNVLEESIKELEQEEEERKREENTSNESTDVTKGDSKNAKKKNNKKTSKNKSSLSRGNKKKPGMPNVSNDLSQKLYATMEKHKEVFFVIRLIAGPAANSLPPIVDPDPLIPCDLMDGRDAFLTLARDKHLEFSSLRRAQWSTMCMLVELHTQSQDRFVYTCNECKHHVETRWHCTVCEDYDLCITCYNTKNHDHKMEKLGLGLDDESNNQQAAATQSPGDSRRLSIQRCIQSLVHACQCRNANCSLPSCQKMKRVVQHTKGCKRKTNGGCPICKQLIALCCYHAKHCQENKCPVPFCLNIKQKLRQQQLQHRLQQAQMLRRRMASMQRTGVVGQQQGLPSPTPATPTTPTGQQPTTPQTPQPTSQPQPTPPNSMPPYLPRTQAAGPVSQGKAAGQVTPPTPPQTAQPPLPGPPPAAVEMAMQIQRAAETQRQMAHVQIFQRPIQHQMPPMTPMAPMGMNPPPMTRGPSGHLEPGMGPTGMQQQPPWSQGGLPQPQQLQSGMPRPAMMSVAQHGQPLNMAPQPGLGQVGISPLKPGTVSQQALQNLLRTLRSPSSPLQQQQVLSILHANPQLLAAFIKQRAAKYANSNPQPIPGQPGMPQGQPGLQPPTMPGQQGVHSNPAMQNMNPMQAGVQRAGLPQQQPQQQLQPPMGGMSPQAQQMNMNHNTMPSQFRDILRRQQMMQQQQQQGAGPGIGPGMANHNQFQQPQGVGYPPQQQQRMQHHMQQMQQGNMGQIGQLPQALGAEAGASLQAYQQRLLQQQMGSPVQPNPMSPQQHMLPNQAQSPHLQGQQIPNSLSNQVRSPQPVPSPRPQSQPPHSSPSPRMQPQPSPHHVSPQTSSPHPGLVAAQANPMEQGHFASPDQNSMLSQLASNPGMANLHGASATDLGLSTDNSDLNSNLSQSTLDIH

The target of assay [1] is 3xFLAG-N-Myc (full-length N-Myc with a 3xFLAG tag) (UniProt P04198). As to the kind of experiment: co-IP; lysates of 293 cells (293T in the methods) about 72 h after transfection with full-length or deletion mutant FLAG-tagged N-Myc or empty vector; FLAG magnetic beads; Western blot for endogenous p300 and FLAG. In general terms: A western blot detects proteins with antibodies after separation by electrophoresis.

For assay [2], the target named is Δ382–464 deletion mutant N-Myc with a 3xFLAG tag (UniProt P04198). The description is as above.
In assay [3] the target is Δ346–464 deletion mutant N-Myc with a 3xFLAG tag (UniProt P04198). The description is as above.
Assay [4] deals with Δ1–123 deletion mutant N-Myc with a 3xFLAG tag (UniProt P04198). The assay is described as above.
Assay [5] deals with Δ281–464 deletion mutant N-Myc with a 3xFLAG tag (UniProt P04198). Described as above.
For assay [6], the target named is N-Myc proto-oncogene protein (human (endogenous in SK-N-BE(2))) (UniProt P04198). As to the kind of experiment: co-IP; endogenous co-IP from SK-N-BE(2) lysate with N-Myc antibody or p300 antibody, normal IgG as negative control; Western blot with N-Myc and p300 antibodies.

Turning to “histone acetyltransferase p300 (from UniProt Q09472 1-2414)”, the binding entry in assay [1] is given as “binds”; in assay [2], “binds”; in assay [3] it was “binds”; in assay [4] it was “no binding”; in assay [5] it was “binds”; in assay [6], “binds”.

The record behind these values is paper PMC9984901.
